According to the RNAGym collection of RNA variant scans (doi:10.1093/nar/gkz1192):
Read counts are not given, so values of variants with three or more changes are uncertain.

B1: CPEB3 Ribozyme (parent)
chain: UAACAGGGGGCCACAGCAGAAGCGUUCACGUCGCAGCCCCUGUCAGAUUCUGGUGAAUCUGCGAAUUCUGCUGUAUAUCUC

Variants of: B1
Test: self-cleavage, relative activity (ratio to wild type); higher = more cleavage; in vitro, sequencing
Procedure, shortened: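 Libraries of CPEB3 self-cleaving ribozyme mutants came from rounds of error-prone PCR and carried barcodes, which DNA sequencing matched to variants. In vitro transcription used T7 RNA polymerase at 37°C for 5 hours, with a further 15 min in DNase I before EDTA stopped the reaction; the ribozymes cleaved during both steps. The RNA was reverse transcribed with template switching and sequenced on Illumina. Relative activity is the cleaved/total read fraction of a variant divided by that of the unmutated ribozyme, averaged over three batches with at least 5 reads.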

Variant | self-cleavage
A2G A56G A57G | 0.24
A2G G8U U58C U72C U78C U80C | 0.2
A2G A28G U48C A56G U66C | 0.19
A2G A13G C17A C27U C29U A75G U78C | 0.06
A2G A65C U66C | 0.32
A2G A35G U43C | 0.96
A2G A5C A15U U66C G70A U72C | 0.34
A2G G7C C68A | 0.07
A2G A13G A47G A56U | 0.08
A2G A28U U41C U48C | 0.08
A2C U41A A47U U58A | 0.06
A2G G8U C12A C23U A28U G30C U72G | 0.03
A2C A21U A35G U67A | 0.43
A2G A5G A35G | 1.04
A2G C32A U69C A77U U80C | 0.12
A2G A3G A28G U41C | 0.82
A2G C12U A65G U66C | 0.13
A2G C12U G36C U78C | 0.06
A2C U41C C68A | 0.35
A2G A5U A28G U51A U54C A77G | 0.25
A2C U26C U48C U67A | 0.42
A2G G7A C14A A18G U25A | 0.06
A2G A45G A56U | 0.53
A2G A45G U76C A77G | 0.53

Variant | self-cleavage
A2G A13U A28G C38G | 0.08
A2G A13U A45U U67C | 0.21
A2G C44U A64G | 0.33
A2G A18U U43C | 0.05
A2G A3G C11U G46A A57G U60C | 0.1
A2G A3G U48C U60C G63U | 0.22
A2G A5U A35G A56G U72A U78C | 0.94
A2G G10A A15G U41A | 0.09
A2G A45U G70A U76C | 0.17
A2G A13U G70C | 0.16
A2G A47U U72G U76A A77C | 0.1
A2G A15U C17A A75U | 0.49
A2G A5U G9U U25C C29U U41C | 0.07
A2G C17A U51A | 0.55
A2G C14A A15G U26A A56G U80C | 0.6
A2G A18U A28U U76G | 0.61
A2G A5G A15U U78G | 0.55
A2G G9A A28U C68U U69A C71A | 0.1
A2G A5G C12U U54C C71A | 0.17
A2G A5U G10A U51C U76C | 0.06
A2G A5U A35G A56G U60A U78C | 0.47
A2G G33A U54A | 0.22
A2G G6A U25C U31A U41C | 0.07
A2G A5U G8A C38U U54G A64G U66A | 0.05

Variant | self-cleavage
A2G A5G A28G A35G U67A | 0.17
A2G A45U A65C | 0.28
A2G C29A U74C | 0.59
A2G A5U A15G U41C G55C A56G | 0.49
A2G C27U A28G A45U U72A | 0.1
A2C A15U A20G C38U | 0.05
A2C A28U U72C | 0.32
A2G A13G C62U | 0.75
A2C U25C A45C A57G | 0.63
A2G C11G C44A C59A U72C | 0.06
A2G A45G U49A U66C | 0.21
A2G A18U U31A A35U U51C U58G U66C | 0.05
A2G A3G G36A U80C | 0.75
A2G A35G U49C U72C | 0.27
A2G A21G A28U | 0.42
A2G A21G U26A G33A U51C U67G U69A | 0.1
A2G A47G U60C A64U | 0.1
A2G G9A A20G A45G A65G | 0.23
A2G A15U A75U U78A | 0.47
A2G C12A U25C U41A A45G U74C U80C | 0.04
A2G C34U A47U G53A U67A U74C | 0.04
A2G A64U U67A | 0.18
A2G A35U G52A U69C | 0.13
A2G A15G G22A A35G A57G | 0.12

Variant | self-cleavage
A2G G9U U80A | 0.47
A2G A21G A64G A77G | 0.23
A2G A18U U41A G55U | 0.1
A2G A3G C62A | 0.39
A2G C12U A21G A35G G36U U43C U49C | 0.04
A2G C12U U43C G70U | 0.21
A2G A18U A35U U41A U43C | 0.46
A2G G24U A56G U58A | 0.07
A2G A28U U51C U58A | 0.06
A2G A65G U72A U80A | 0.11
A2G A15G A21G A57G U66C A77G | 0.52
A2G G8A A45G | 0.47
A2C G9U A13G U49A U51C | 0.05
A2G A15G U26C G30A U41C U60A U67C | 0.07
A2G G6A C39G A45U U69C G73A | 0.13
A2G A13U U41A U49A U80C | 0.31
A2G A20C C29U U31C U48C U69C | 0.05
A2G A3G U25C C40G U41A U74A | 0.17
A2G A20G U25A A47G A56G C62U G73U | 0.03
A2G A65G U66C A75G | 0.17
A2G G7U A15G G33C A56C A57U | 0.06
A2G A3G A28G U67C | 0.39
A2G A15G A20G U49C | 0.33
A2G A3U G10A A57C U58A | 0.03

Variant | self-cleavage
A2G A5G G10A A57G U67C | 0.07
A2G A13G A35U A45U A56G | 0.11
A2G A15U U43C C81U | 0.3
A2G A15C G16U U26A U31A | 0.13
A2G A5G U25C A45G | 0.71
A2G G7A A18C A35G U67C U72C | 0.07
A2G A57G U66C U72C A77G | 0.27
A2G A3U A45G | 1.01
A2G A15U U49A | 0.08
A2G A21G U26C A28G A64G | 0.32
A2G A3G U49A U58A A75G | 0.45
A2G C11A A13U U43G U72A A77G | 0.05
A2G A20U U54A | 0.4
A2G A18U U58C | 0.18
A2G A18U U54A | 0.57
A2G A5G A35G U54C U60C U78A | 0.54
A2G G7A C29G U67C U72A | 0.07
A2G A13G C38U A64G | 0.5
A2G G9A A65C U78C | 0.05
A2C G24A U69C | 0.1
A2G C4U A15G A20G U26C A28G | 0.65
A2G A21U G22U U41A U67C | 0.05
A2G A20U A21G C62U | 0.22
A2G C38A U60A | 0.33

Variant | self-cleavage
A2G G36A U58C | 0.07
A2C A56G A65G U72A | 0.18
A2G A18G C27U U78A | 0.09
A2G G10A C68A U72C | 0.17
A2G A5G A28U U43C U66C A77U | 0.07
A2G A35U A47G A64U U74A A75G | 0.08
A2G A5U A28U U43C A57G U76A | 0.29
A2G A3U C11G A18U A21G | 0.56
A2G C17U G36U | 0.04
A2G A3G A13G | 0.45
A2G G33A U51C U72A | 0.06
A2G A5U G19U A57C | 0.1
A2G A21U U31C C34G U41C A65G C68U | 0.02
A2G A21G A45U | 0.24
A2G A35G U41C | 1.22
A2G A3U U26A U31C U49C A56G | 0.92
A2G C14U A18G A21C U41C A45G | 0.43
A2C A35G U58C | 0.74
A2G A3G A28G | 0.8
A2G C39A U74C | 0.42
A2C A21G A57G | 0.37
A2G G33A U67C | 0.08
A2G A5G A15U U66C | 0.37
A2G G7A A45G A57G U58C | 0.19

Variant | self-cleavage
A2G A5U A15G U25A U60C | 0.05
A2G A15U U26C U49C U72A | 0.13
A2G A45G A56G U69A | 0.31
A2G C40A A45G U60C U78A | 0.08
A2G A20G U25C U43C G63A U80A | 0.25
A2C A15G C27U U72A | 0.27
A2G G19U U25A | 0.32
A2G C4U G6C U41C A47G U54G U80A | 0.37
A2G A15U A47G U49A U76C | 0.08
A2G A18G U51A A56G C62U U76C | 0.21
A2G A18G U78A | 0.69
A2G A3G G8A C11A U25A U74C | 0.07
A2G C11G A13U A20G C34U U41C | 0.08
A2G C12U A64G | 0.85
A2G G9C A15U A21G C39U U48C U49C | 0.06
A2G A5G U54C U60C | 0.11
A2C C11A U41A U78A | 0.26
A2G A15U A35U U41C U43C | 0.08
A2G A13G G63A A64C G70U U72C | 0.12
A2G A3G A35G | 1.14
A2G G9U C11U U31A U49A U60C U66C | 0.13
A2G A15G U31A U43A | 0.62
A2G G10U U31C U67C U72A | 0.07
